This note sets out measurements from the antibiotic and cytotoxicity screens of Wong et al. (2023).

Molecules are shown by their SMILES. This is one part of the list.

The test system of the first experiment is HepG2. Nature of the experiment: cytotoxicity call (relative viability < 0.9). As to conditions: 10 µM.
For the molecule `Cc1noc(C2CNC2)n1`, the cytotoxicity call is “inactive”.
As to `C[C@H]1CCCCO[C@@H](CN(C)S(=O)(=O)c2ccc(F)cc2)[C@@H](C)CN([C@@H](C)CO)C(=O)c2cc(NC(=O)C3CCCCC3)ccc2O1`, the cytotoxicity call was “inactive”.
Still for that read-out and setting: the same measure for `O=C(C[C@H]1C[C@@H]2c3cc(NC(=O)Nc4ccccc4)ccc3O[C@@H]2[C@@H](CO)O1)NCCN1CCCCC1`: “inactive”; for `CC[C@H](C)[C@H]1O[C@]2(CC[C@@H]1C)C[C@@H]1C[C@@H](C/C=C(\C)[C@@H](O[C@H]3C[C@H](OC)[C@@H](O[C@H]4C[C@H](OC)[C@@H](O)[C@H](C)O4)[C@H](C)O3)[C@@H](C)/C=C/C=C3\CO[C@@H]4[C@H](O)C(C)=C[C@@H](C(=O)O1)[C@]34O)O2`: “active”.
For `CNC(=O)[C@H]1C[C@@H]2CN(Cc3cnn(C)c3)C[C@@H]2N1C`, the cytotoxicity call is “inactive”.
Same read-out and setting: then `COc1ccc(CN(C)C[C@@H]2Oc3ccc(NS(=O)(=O)c4cn(C)cn4)cc3CC(=O)N([C@H](C)CO)C[C@H]2C)cc1`, with “inactive”; and `C[C@H](NC(=O)C[C@H]1C[C@H]2c3cc(NC(=O)Nc4ccc(C(F)(F)F)cc4)ccc3O[C@H]2[C@H](CO)O1)c1ccccc1`, with “inactive”; and `C[C@H](CO)N1C[C@H](C)[C@H](CN(C)S(=O)(=O)c2cccs2)Oc2ccc(NS(C)(=O)=O)cc2CC1=O`, with “inactive”.
Same read-out and setting: the same measure for `Cc1oncc1C(=O)Nc1ccc(C(F)(F)F)cc1`: “inactive”.
Same read-out and setting: then `CC(C)(C)[S@](=O)N1Cc2cc(C(=O)N3CCCCC3)nc(-c3cccc(-c4ccccc4F)c3)c2[C@@H]1CCO`, with “inactive”; and `C[C@H](CO)N1C[C@H](C)[C@@H](CN(C)S(C)(=O)=O)OCc2cn(nn2)CCCC1=O`, with “inactive”; and `NCCCCC(=O)O`, with “inactive”.
As to `O=C(O)C1CSCN1` (stereo not drawn), the cytotoxicity call is “inactive”.

The next experiment concerns S. aureus RN4220. Nature of the experiment: growth inhibition call (relative growth <= 0.2). As to conditions: 50 µM.
Consider `C[C@@H]1CCCCO[C@@H](CN(C)C(=O)Nc2ccccc2)[C@H](C)CN([C@H](C)CO)C(=O)c2cc(NC(=O)Nc3cccc4ccccc34)ccc2O1`, for which the growth inhibition call was “inactive”.
The same measure, in the same setting: the same measure for `Cc1noc(C)c1S(=O)(=O)N(C)C[C@@H]1Oc2c(NC(=O)c3cnccn3)cccc2C(=O)N([C@@H](C)CO)C[C@@H]1C`: “inactive”; for `Cc1noc(C)c1NC(=O)Nc1ccc2c(c1)CC(=O)N([C@@H](C)CO)C[C@@H](C)[C@@H](CN(C)C(=O)Nc1ccc(C(F)(F)F)cc1)O2`: “inactive”.
On the same count and under the same terms, then `C[C@@H]1CN([C@H](C)CO)C(=O)c2cc(NS(=O)(=O)c3cn(C)cn3)ccc2O[C@@H]1CN(C)Cc1ccc2c(c1)OCO2`, with “inactive”.
The same measure, in the same setting: the same measure for `CC(=O)N(C[C@@H](O)CO)c1c(I)c(C(=O)NCCO)c(I)c(C(=O)NC[C@@H](O)CO)c1I`: “inactive”; for `COc1ccc(S(=O)(=O)Nc2ccc3c(c2)C(=O)N([C@@H](C)CO)C[C@H](C)[C@@H](CN(C)Cc2ccc(-c4ccccc4)cc2)O3)cc1`: “inactive”.
Turning to `Cc1noc(C)c1S(=O)(=O)Nc1cccc2c1O[C@H](CN(C)S(=O)(=O)c1cn(C)cn1)[C@H](C)CN([C@@H](C)CO)C2=O`, the growth inhibition call is “inactive”.
The same measure, in the same setting: the same measure for `CC(C)NC(=O)N(C)C[C@H]1OCCCC[C@@H](C)Oc2ccc(NS(C)(=O)=O)cc2C(=O)N([C@@H](C)CO)C[C@@H]1C`: “inactive”; for `C[C@@H]1CCCCO[C@H](CN(C)CC2CCCCC2)[C@H](C)CN([C@@H](C)CO)C(=O)c2cc(NC(=O)Nc3cccc4ccccc34)ccc2O1`: “inactive”; for `C[C@H](CO)N1C[C@H](C)[C@@H](CN(C)Cc2ccncc2)Oc2c(NC(=O)c3cnccn3)cccc2C1=O`: “inactive”.
On to `Cc1noc(C)c1NC(=O)Nc1ccc2c(c1)C(=O)N([C@H](C)CO)C[C@@H](C)[C@@H](CN(C)CC1CCCCC1)OCCCC[C@@H](C)O2`, for which the growth inhibition call is “inactive”.
Same read-out and setting: then `COCC#Cc1ccc2c(c1)O[C@@H](CN(C)C(=O)Nc1ccc(OC)cc1)[C@H](C)CN([C@H](C)CO)S2(=O)=O`, with “inactive”.
On the same count and under the same terms, then `CO[C@H]1CN(C)C(=O)c2cc(NC(=O)NC(C)C)ccc2OC[C@H](C)N(Cc2ccc(-c3ccccn3)cc2)C[C@@H]1C`, with “inactive”.
Same read-out and setting: the same measure for `C[C@@H]1CN([C@@H](C)CO)C(=O)Cc2cc(NC(=O)Nc3ccc(C(F)(F)F)cc3)ccc2O[C@@H]1CN(C)Cc1ccc(C(F)(F)F)cc1`: “inactive”; for `COc1ccccc1NC(=O)Nc1ccc2c(c1)OC[C@@H](C)N(Cc1ccccc1C(=O)O)C[C@@H](C)[C@H](OC)CN(C)C2=O`: “inactive”.
Consider `C[C@@H]1CCCCO[C@H](CN(C)C(=O)Nc2ccc3c(c2)OCO3)[C@H](C)CN([C@H](C)CO)C(=O)c2cc(NC(=O)NC3CCCCC3)ccc2O1`, for which the growth inhibition call is “inactive”.
The same measure, in the same setting: the same measure for `C[C@H](O)C#Cc1ccc2c(c1)O[C@H](CN(C)C(=O)C1CCCCC1)[C@H](C)CN([C@@H](C)CO)S2(=O)=O`: “inactive”; for `C[C@H](CO)N1C[C@H](C)[C@@H](CN(C)C(=O)c2cccnc2)Oc2cc(-c3cccc(C#N)c3)ccc2S1(=O)=O`: “inactive”; for `C[C@@H]1[C@H]2[C@H](O[C@@H]3O[C@H](CO)[C@@H](O)[C@H](O)[C@H]3O)OC=C(C(=O)O)[C@H]2C[C@@H]1OC(=O)/C=C/c1ccc(O)cc1`: “inactive”.
The same measure, in the same setting: then `C[C@@H]1CN([C@H](C)CO)C(=O)c2ccccc2-c2ccccc2CO[C@@H]1CN(C)C(=O)Nc1cccc(Cl)c1Cl`, with “inactive”; and `CC(C)(N)CN1CCCCC1`, with “inactive”.
Take `C[C@H](CO)N1C[C@H](C)[C@@H](CN(C)C(=O)Nc2ccc(F)cc2)Oc2c(NC(=O)c3ccc(-c4nccs4)cc3)cccc2C1=O`: the growth inhibition call was “inactive”.
Still for that read-out and setting: then `C[C@@H]1CN([C@H](C)CO)C(=O)c2cc(NS(=O)(=O)c3ccc(Cl)cc3)ccc2O[C@H]1CN(C)C(=O)Nc1ccc(C(F)(F)F)cc1`, with “inactive”; and `Cc1noc(C)c1NC(=O)N(C)C[C@@H]1Oc2ccc(NC(=O)Nc3ccc(C(F)(F)F)cc3)cc2C(=O)N([C@@H](C)CO)C[C@@H]1C`, with “inactive”.
On the same count and under the same terms, then `Cc1noc(C)c1NC(=O)Nc1ccc2c(c1)C(=O)N([C@@H](C)CO)C[C@@H](C)[C@@H](CN(C)Cc1ccc(Cl)c(Cl)c1)OCCCC[C@@H](C)O2`, with “inactive”; and `CCS(=O)(=O)N1CC[C@]2(CC1)CN(CC1CCOCC1)[C@@H](CO)c1c2c2ccc(cc2n1C)OC`, with “inactive”.
Same read-out and setting: the same measure for `Cc1noc(C)c1S(=O)(=O)N(C)C[C@@H]1Oc2ccc(NC(=O)CCC(F)(F)F)cc2CC(=O)N([C@@H](C)CO)C[C@@H]1C`: “inactive”; for `Cc1noc(C2CNC2)n1`: “inactive”.
Take `C[C@H]1CCCCO[C@@H](CN(C)S(=O)(=O)c2ccc(F)cc2)[C@@H](C)CN([C@@H](C)CO)C(=O)c2cc(NC(=O)C3CCCCC3)ccc2O1`: the growth inhibition call was “inactive”.
As for `O=C(C[C@H]1C[C@@H]2c3cc(NC(=O)Nc4ccccc4)ccc3O[C@@H]2[C@@H](CO)O1)NCCN1CCCCC1`, the growth inhibition call is “inactive”.
`CC[C@H](C)[C@H]1O[C@]2(CC[C@@H]1C)C[C@@H]1C[C@@H](C/C=C(\C)[C@@H](O[C@H]3C[C@H](OC)[C@@H](O[C@H]4C[C@H](OC)[C@@H](O)[C@H](C)O4)[C@H](C)O3)[C@@H](C)/C=C/C=C3\CO[C@@H]4[C@H](O)C(C)=C[C@@H](C(=O)O1)[C@]34O)O2`: the growth inhibition call was “inactive”.
On the same count and under the same terms, then `CNC(=O)[C@H]1C[C@@H]2CN(Cc3cnn(C)c3)C[C@@H]2N1C`, with “inactive”; and `COc1ccc(CN(C)C[C@@H]2Oc3ccc(NS(=O)(=O)c4cn(C)cn4)cc3CC(=O)N([C@H](C)CO)C[C@H]2C)cc1`, with “inactive”; and `C[C@H](NC(=O)C[C@H]1C[C@H]2c3cc(NC(=O)Nc4ccc(C(F)(F)F)cc4)ccc3O[C@H]2[C@H](CO)O1)c1ccccc1`, with “inactive”.
As for `C[C@H](CO)N1C[C@H](C)[C@H](CN(C)S(=O)(=O)c2cccs2)Oc2ccc(NS(C)(=O)=O)cc2CC1=O`, the growth inhibition call was “inactive”.
Turning to `Cc1oncc1C(=O)Nc1ccc(C(F)(F)F)cc1`, the growth inhibition call is “inactive”.
As for `CC(C)(C)[S@](=O)N1Cc2cc(C(=O)N3CCCCC3)nc(-c3cccc(-c4ccccc4F)c3)c2[C@@H]1CCO`, the growth inhibition call is “inactive”.
Consider `C[C@H](CO)N1C[C@H](C)[C@@H](CN(C)S(C)(=O)=O)OCc2cn(nn2)CCCC1=O`, for which the growth inhibition call is “inactive”.
In the case of `NCCCCC(=O)O`, the growth inhibition call is “inactive”.
In the case of `O=C(O)C1CSCN1` (stereo not drawn), the growth inhibition call was “inactive”.
